Results from a compilation of properties of binary mixtures (doi:10.1039/b819795b).
The densities may have been worked out from excess volumes.

Assay: xn = mol fraction of the nth substance listed
Details: 101 kPa

CCCCCCCC[n+]1ccn(C)c1.F[P-](F)(F)(F)(F)F + CCCCCC
mass density [kg/m3]
Details | x2 = 0 | x2 = 0.0468 | x2 = 0.0712 | x2 = 0.0893 | x2 = 0.1268
293.15 K | 1239.6 | 1227.4 | 1221 | 1216.1 | –
298.15 K | 1235.7 | 1223.6 | 1217.1 | – | 1201.5
303.15 K | 1231.9 | 1219.7 | – | 1208.4 | 1197.6

CCCCCCCC[n+]1ccn(C)c1.F[P-](F)(F)(F)(F)F + CC(C)O
mass density [kg/m3]
Details | 293.15 K | 298.15 K | 303.15 K
x1 = 0.0004 | 785.7 | 781.7 | 777.3
x1 = 0.0009 | 786.6 | 782.6 | 778.2
x1 = 0.0014 | 787.5 | – | 779.1
x1 = 0.0024 | 789.1 | 785.1 | 780.7
x1 = 0.003 | 790.1 | 786.1 | 781.8
x1 = 0.0053 | – | 790 | 785.7
x1 = 0.0098 | – | – | 793.2
x2 = 0 | 1239.6 | 1235.7 | 1231.9
x2 = 0.0069 | – | 1235 | 1231.2
x2 = 0.0965 | 1227.1 | 1223.3 | 1219.5
x2 = 0.2012 | 1210.9 | 1207.1 | 1203.2
x2 = 0.304 | 1192 | 1188.1 | –
x2 = 0.4009 | 1170.5 | 1166.5 | 1162.6
x2 = 0.4943 | 1145.1 | – | –
x2 = 0.5989 | 1109.3 | 1105.3 | –
x2 = 0.6487 | – | 1084.5 | 1080.3
x2 = 0.6964 | – | 1061.7 | 1057.5
x2 = 0.7469 | – | – | 1029.7

CCCCCC + CCCCCCCC[n+]1ccn(C)c1.F[P-](F)(F)(F)(F)F
x1 = 1
Details | mass density [kg/m3]
293.15 K | 659.5
298.15 K | 654.9

CCCCCCCC[n+]1ccn(C)c1.F[P-](F)(F)(F)(F)F + CCCCCCC
mass density [kg/m3]
Details | x2 = 0 | x2 = 0.0074 | x2 = 0.0516 | x2 = 0.0803
293.15 K | 1239.6 | 1237.4 | 1224.2 | –
298.15 K | 1235.7 | – | 1220.4 | 1212.2
303.15 K | – | 1229.7 | – | 1208.4

CC(C)O + CCCCCCCC[n+]1ccn(C)c1.F[P-](F)(F)(F)(F)F
Details | mass density [kg/m3]
293.15 K, x1 = 1 | 785

CCCCCCC + CCCCCCCC[n+]1ccn(C)c1.F[P-](F)(F)(F)(F)F
x1 = 1
Details | mass density [kg/m3]
293.15 K | 683.7
298.15 K | 679.5
303.15 K | 675.2
